# In all, about 110,000 compounds went through this assay and about 230 (0.21%) showed an effect of 50% or more. The list shows a part of the results.
# Molecular target: DPAP1 (Plasmodium falciparum, UniProt Q8IIJ9)
# Assay: primary screen, percent inhibition; read by cleavage of a fluorogenic dipeptide substrate; higher = more effect of the substance
# Set-up: species or system P. falciparum D10 trophozoite lysates; single well
# 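Further: 30 min substrate incubation versus DMSO and 10 µM JCP410 controls.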
# Chain of DPAP1 (Q8IIJ9 whole entry, looked up): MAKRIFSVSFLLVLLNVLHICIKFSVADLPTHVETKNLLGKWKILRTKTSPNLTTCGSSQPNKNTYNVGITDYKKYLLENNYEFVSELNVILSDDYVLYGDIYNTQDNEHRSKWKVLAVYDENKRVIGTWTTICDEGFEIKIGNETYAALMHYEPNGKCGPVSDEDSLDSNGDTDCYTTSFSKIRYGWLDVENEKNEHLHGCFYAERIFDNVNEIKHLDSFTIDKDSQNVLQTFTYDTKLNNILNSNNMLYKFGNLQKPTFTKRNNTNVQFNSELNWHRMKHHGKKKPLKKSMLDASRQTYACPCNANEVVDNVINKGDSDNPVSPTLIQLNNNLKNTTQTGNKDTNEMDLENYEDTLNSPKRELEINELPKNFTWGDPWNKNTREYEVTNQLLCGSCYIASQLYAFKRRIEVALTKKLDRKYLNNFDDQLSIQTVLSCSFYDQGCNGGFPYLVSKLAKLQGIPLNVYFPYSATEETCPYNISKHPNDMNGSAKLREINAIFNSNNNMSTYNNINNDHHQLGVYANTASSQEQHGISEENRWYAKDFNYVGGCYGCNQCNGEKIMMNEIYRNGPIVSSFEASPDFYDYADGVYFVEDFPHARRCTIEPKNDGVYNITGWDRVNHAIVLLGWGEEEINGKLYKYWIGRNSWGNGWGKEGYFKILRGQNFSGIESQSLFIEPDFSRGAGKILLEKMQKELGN
row,Structure (SMILES),% Inhibition @ 10 uM [%]
1,Oc1oc(-c2ccccc2)cc1/C=N/c1nc(-c2ccccc2)cs1,3.87
2,C=CCn1c(SCC(=O)NCC2CCCO2)nc2scc(-c3ccc(Cl)cc3)c2c1=O (centres unmarked),-2.77
3,Cc1ccc(-c2cc(O)c(O)nn2)cc1,-6.22
4,CC1CCc2c(sc3ncn(CC(=O)O)c(=O)c23)C1 (centres unmarked),5.39
5,C=CCNc1oc(/C=C/c2ccccc2OC)nc1C#N,0.895
6,O=C(NC1CCN(Cc2ccccc2)CC1)c1ccc2c(c1)sc1nc(-c3ccc(F)cc3)cn12,10.9
7,CC(=O)N[C@@H](CCc1ccccc1)C(=O)N[C@@H](CC(C)C)C(=O)N[C@H](Cc1ccccc1)C(=O)N[C@@H](CC(C)C)C(=O)c1nc2ccccc2o1,1.42
8,Cc1ccc(/C=C/c2nn3c(-c4ccco4)nnc3s2)cc1,4.94
9,O=C(c1ccccc1Oc1nnnn1-c1ccccc1)N1CCCC1,-1.37
10,Cc1cc(Br)ccc1NC(=O)CN1CC(c2ccccc2)CC1=O (centres unmarked),-1.36
11,Cc1oc(-c2ccccc2)nc1CS(=O)CC(=O)N1CCOCC1 (centres unmarked),-5.58
12,Cc1cc2nc(O)c(O)nc2cc1S(=O)(=O)NC1CCCC(C)C1C (centres unmarked),1.77
13,O=C(NCc1cccnc1)c1cnn2c(C(F)(F)F)cc(-c3ccc4c(c3)OCO4)nc12,3.32
14,O=[N+]([O-])c1ccc(Cl)cc1CN1CC=C(c2ccc(F)cc2)CC1,2.1
15,CCN(CC)C(=O)c1cc(-c2ccc(C)s2)nc2ccccc12,-2.03
16,Cc1c(C(=O)NCCN2CCOCC2)oc2ccc3c(c12)C(=O)CC1(CCCCC1)O3,-6.58
17,CSC1=C(C#N)C(c2ccc(O)cc2)CC(=O)N1 (centres unmarked),2.78
18,O=C(/C=C\Nc1cccc(F)c1)c1ccc2c(c1)OCO2,3.92
19,CC(C)CP(=O)(O)c1ccccc1,1.41
20,CC1=C(C#N)C(=O)N(C)C(=O)/C1=C\c1ccc(-c2ccc(Cl)c(C(=O)OCC(C)C)c2)o1,3.27
21,CCc1c2ccccc2nn1-c1ccccc1C(=O)C(C)=O,2.55
22,O=S(=O)(NC1CCCCC1SC1=NCCS1)c1ccc(Cl)cc1 (centres unmarked),-3.64
23,COc1ccc(S(=O)(=O)N2CCC(C(=O)NCc3ccccc3Cl)CC2)cc1,-3.45
24,COc1cc(C2CC(=O)NC(SCc3ccccc3)=C2C#N)ccc1O (centres unmarked),-3.12
25,O=C(COc1ccc(Cl)cc1)NCCCc1ccccc1,-5.34

row,Structure (SMILES),% Inhibition @ 10 uM [%]
1,Cc1[nH]c2ccccc2c1Cc1nnc(SCc2ccccc2)o1,0.564
2,COc1cc(C(=O)NCc2nc(-c3ccc(C)cc3)no2)cc(OC)c1OC,-2.99
3,CC(C)CCNC(=O)C1C2C=CC3(CN(Cc4cccnc4)C(=O)C13)O2 (centres unmarked),-5.8
4,COc1ccc(N(CC(=O)Nc2c(C)cccc2C)S(C)(=O)=O)cc1OC,0.324
5,NS(=O)(=O)c1ccc(Cl)c(C(=O)Nc2cccc([N+](=O)[O-])c2)c1,-3.52
6,CCOc1ccc2nc(NC(=O)C3CC3)sc2c1,-3.5
7,Nc1cccc(NC(=O)c2cccc(Cl)c2)c1,3.32
8,O=C(O)CCCN1C(=O)c2cccc3cccc(c23)C1=O,-4.27
9,O=C(c1ccccc1-n1cccc1)N1N=C(C(F)F)CC1(O)C(F)F (centres unmarked),-3.71
10,COC(=O)C1=C(NC(=O)c2ccc(S(=O)(=O)N3CCOCC3)cc2)CCS1,-0.053
11,CCCCSC1=C(C#N)C(=O)NC(c2ccc(C(=O)O)cc2)S1 (centres unmarked),-5.41
12,CCN(CCCNC(=O)Cn1nc(Cc2ccncc2)c2ccccc2c1=O)Cc1ccccc1,5.09
13,COc1ccc(-c2noc(CNC(=O)COc3ccc(C)cc3Br)n2)cc1,3.74
14,Cc1cc(Nc2cccc(C(=O)O)c2)nc2ccccc12,-2.91
15,COc1ccc(-c2cc(C(F)F)n3ncc(C(=O)NCCCN4CCOCC4)c3n2)cc1,-4.62
16,COc1ccc(/C=C2\SC(=O)N(Cc3ccc(F)cc3)C2=O)cc1OC,0.24
17,Cc1ccc(CCP(=O)(O)CN2CCCCC2)cn1,5.3
18,O=C(O)CSc1nc2c(cnn2-c2ccccc2)c(=O)n1-c1ccc(F)cc1,4.61
19,Cc1ccc(CSc2nc3ccsc3c(=O)n2Cc2ccccn2)cc1,-3.49
20,CCSCCO/C(O)=C1\C(C)=NC2=C(C(=O)CCC2)C1c1ccc(OCCO)c(OC)c1 (centres unmarked),6.51
21,CC(=O)N1CCC2(CC1)OC(=O)C(C)=C2C(=O)N1CCCC1,2.37
22,Cc1cc(C)c(C(=O)/C=C(\N2CCCC2)C(F)(F)F)c(O)n1,3.38
23,CCCCNC(=O)C1CC(=O)N(C2CCCCCC2)C1 (centres unmarked),0.387
24,CCOC(=O)C1=C(CNCc2ccccc2Cl)NC(=O)NC1c1cc(C)ccc1C (centres unmarked),-2.63
25,N#C/C(=C\c1c(Oc2ccc(Cl)cc2)nc2ccccn2c1=O)C(=O)NCc1ccco1,-0.828

# Source: article PMC6919601, “Identification of Plasmodium dipeptidyl aminopeptidase allosteric inhibitors by high throughput screening” (PLoS ONE, 2019)
